Test results taken from patent publication US5488035A (priority 1991, dated 1996).

Legend:
[1] = system: Fusarium graminearum, isolate 8 (FGR 008); details: Example 1; 100 μg/ml; scale 0 (no inhibition relative to water control) to 4 (complete inhibition)
Protocol: (§1) The tachyplesin was used at a concentration of 100 μg/ml as determined by absorption spectrum was screened against four common plant pathogens in both crude and oxidized forms. Antifungal activity was scored on a scale of 0 to 4, with 0 being no inhibition observed relative to a water control, and 4 being complete inhibition. Two reps were done for each treatment. Results were as follows:
(§2) Decreasing tested concentrations of tachyplesin were against the preceding four organisms plus Fusarium moniliforme and Sclerotinia sclerotiorum to determine the minimum inhibitory concentration, and this was compared with other antimicrobial compounds.

[2] = system: Aspergillus flavus, isolate 1 (AFL 001); experiment: Antifungal activity score, decreasing concentrations; type: cell-based; details: 100 μg/ml
Protocol: as §1, §2

| Substance | Score (antifungal activity), Fusarium graminearum, isolate 8 [1] | Score (antifungal activity), Aspergillus flavus, isolate 1 [2] |
| --- | --- | --- |
| tachyplesin [tachyplesin oxidized] | 4.0 | 3.5 |
| tachyplesin [tachyplesin crude] | 4.0 | 3.5 |
